Assay results published in PubChem BioAssay AID1963576 (National Center for Advancing Translational Sciences (NCATS), 2024).
The whole screen tested about 46,000 compounds, of which about 60 (0.1%) were called active. Not shown: some 3% with an inconclusive outcome. Calls follow the shape of the dose curve; as a rule, active = well fitted inhibition curve with a large enough effect; inconclusive = small, poorly fitted or top-dose-only effect; inactive = no such curve, though single readings can be large or run the other way. The list shows a part of the results.

Assay: Primary qHTS assay for Inhibitors of ovarian cancer metastasis using an organotypic tumor microenvironment (TME) model. Also: nearly all actives have a fitted effect of over 65% in size.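 As to activity change, negative = inhibition: plate controls were DMSO wells for no effect and tomatine positive control wells for full effect.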
Conditions: SKOV3ip1-GFP adhesion/invasion on 3D omental model, fluorescence; series mostly up to 45.8 µM; activity change, negative = inhibition: at the top concentration
In short: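 qHTS, 4-pt dose (0.36-46 umol/L); SKOV3ip1-GFP, 1,200 cells/well, no FBS; primary omental fibroblast/mesothelial co-culture 48 h pre-grown; 2 h RT + 16 h 37 C; PBS wash, 4% PFA; GFP count 488/509 nm.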

Activity change, negative = inhibition, inactive:
c1coc(-c2nc3ccccn3c2Nc2ccc3c(c2)OCCO3)c1 0.792%
COc1ccc(-c2cn3c(n2)sc2cc(C(=O)Nc4ccccc4F)ccc23)cc1 -0.907%
CCn1cc(S(=O)(=O)c2cccc(C)c2)c(=O)c2cc(F)c(N3CCCCC3C)cc21 (configuration not stated) -2.08%
Cc1ccc(Cn2c(SCc3ccc(C(=O)NCCc4ccccc4)cc3)nc3ccncc32)cc1 0.224%
COc1ccc(NC(=O)/C(C#N)=C/c2ccc(C)o2)cc1 0.347%
CC(C)(C)OC(=O)N1CCC(c2c(C(=O)Nc3ccc4c(c3)OCO4)cnn2-c2ccc(F)cc2F)CC1 21.4%
Cc1ccc(CNC(=O)C(=O)NCC(c2cccs2)S(=O)(=O)c2cccs2)cc1 (configuration not stated) 4.7%
CCc1ccc2occ(CC(=O)Nc3c(C(=O)Nc4ccc(Cl)cc4)oc4ccccc34)c2c1 -7.07%
CN(C)c1ccc(CNc2nc(-c3ccco3)nn2S(C)(=O)=O)cc1 4.79%
CCOC(=O)c1ccc(NC(=O)c2cnc(N3CCCC3)nc2C)cc1 1.59%
CCSc1nc2c([nH]c3ccccc32)c(=O)n1-c1ccc(OC)cc1 -8.6%
CCOC(=O)c1[nH]c2c(c1Cc1ccccc1)C(=O)CC(c1ccc(OC)cc1)C2 (configuration not stated) -6.58%
Cc1cccc(NC(=O)CCNS(=O)(=O)c2ccc3c(c2)CCCC(=O)N3)c1C -24.9%
O=C(O)CCCC(=O)N1CCc2cc(S(=O)(=O)NCc3ccccc3)ccc21 6.46%
CCc1ccc2nc(N(Cc3cccnc3)C(=O)c3cccs3)sc2c1 -8.07%
COCCn1c(SCC(=O)c2ccccc2)nc2cc(C(=O)NC3CCCC3)ccc2c1=O -10.7%
CCCC(=O)Nc1ccc(NC(=O)c2sc3ccccc3c2Cl)cc1 0.314%
COc1ccc(C(=O)N2CCN(C(=O)COc3ccc(Br)cc3)CC2)cc1OC 5.15%
COc1ccc(NC(=O)CN(c2cccc(C)c2C)S(=O)(=O)c2ccccc2)cc1OC 13.8%
CCOC(=O)CSC1=Nc2ccccc2C2=NC(CCC(=O)NCc3ccccc3)C(=O)N12 (configuration not stated) -19.5%
CC(=O)c1cccc(NC(=O)c2noc3c2CC(C)CC3)c1 (configuration not stated) 2.44%
O=C(CSc1nnc(-c2cccs2)o1)Oc1ccc(Cl)cc1 10.2%
CCCCNC(=O)C1CCCN(c2nnc(C)c3c(C)n(-c4ccc(Cl)cc4)nc23)C1 (configuration not stated) 4.38%
CC1CN(C(=O)N2CCC(C(=O)NCCC3=CCCCC3)CC2)c2ccccc2O1 (configuration not stated) 1.4%
COc1cc2c(=O)c(S(=O)(=O)c3ccc(C)cc3)cn(Cc3cccc(C)c3)c2cc1OC -10.3%
CCOC(=O)C1(C)C=C(Nc2ccc(C)cc2)C(=O)N1c1ccccc1 (configuration not stated) 26.2%
CCN(CC)CCN(C(=O)c1ccc(C(=O)OC)cc1)c1nc2ccc(Cl)cc2s1 -9.71%
O=C(Nc1ccc2nn(-c3ccc(F)cc3)nc2c1)c1cccc2c(Cl)cccc12 7.61%
CCOc1ccccc1NC(=O)c1ccc2c(c1)CCCN2S(C)(=O)=O -0.653%
COc1cccc(C(=O)N2CCC(c3nc4ccccc4s3)CC2)c1 1.85%
CCc1nnc(SCc2nc(-c3ccccc3F)oc2C)c2cc3sccc3n12 -8.66%
CCOc1ccccc1NC(=O)c1c(NCc2ccc(OC)c(OC)c2OC)sc2c1CCC(C)C2 (configuration not stated) -13.3%
COC(=O)c1cccc(Nc2c(-c3cc(Br)ccc3O)nc3nc[nH]n23)c1 12.2%
Cc1ccc(Cl)cc1N1CCN(C(=O)c2c(C)oc3ncnc(N4CCOCC4)c23)CC1 -5.82%
CCCCCNC(=O)C1CCC(Cn2c(=O)c3sccc3n(CC(=O)N3CCCC3)c2=O)CC1 (configuration not stated) -4.79%
Cc1cccc(-c2noc(-c3ccc(NC4CCCC4)c([N+](=O)[O-])c3)n2)c1 -12.3%
Cc1cc2n(n1)CCCN2C(=O)Nc1ccccc1F -3.26%
Cc1ccc(Cl)cc1-n1c(=O)cc(N2CCN(c3ccccc3)CC2)[nH]c1=O -2.03%
CCOCN(C(=O)Cn1c(C)nc2ccccc21)c1c(C)cccc1CC -0.811%
CCOC(=O)c1c(S(=O)(=O)N2CCN(c3ccccc3OC)CC2)c(C)n(C)c1C 1.16%

outcome, inactive:
COc1ccc(-n2c(SCC(=O)N3CCCc4ccccc43)nc3c([nH]c4ccccc43)c2=O)cc1
Cc1nc(-c2ccc(C)c(N3CCN(C(=O)Nc4ccc(Br)cc4)CC3)c2)no1
Cc1cc(-c2ccc(C)c(S(=O)(=O)N(Cc3cccs3)C(C)C)c2)on1
CN(C)CCNC(=O)c1ccc2nc(CCc3ccccc3)oc2c1
CCc1ccc(NC(=O)CSC2=Nc3ccccc3C3=NC(CC(=O)NCc4ccc5c(c4)OCO5)C(=O)N23)cc1 (configuration not stated)
Cc1ccccc1Cn1c(=O)n(CCCCC(=O)NCCc2ccccc2)c(=O)c2ccccc21
CN(C)c1ccc(NC(=O)Cn2c(SCc3ccc(F)cc3)nc3cccnc32)cc1
CC1CCCN(c2ncnc3c2nc2n3CCCCC2)C1 (configuration not stated)
CCCCN(C)CCCNC(=O)Cn1nc(CC)n2c(cc3sc(C)cc32)c1=O
Cc1cc2c(cc1C)C(c1cccc(OC(C)C)c1)CC(=O)N2 (configuration not stated)
CSc1cccc(NC(=O)C2CCN(S(=O)(=O)c3ccc4[nH]c(=O)ccc4c3)CC2)c1
CC(=O)c1ccc(NC(=O)CSc2nccn2Cc2ccco2)cc1
CC(C)c1ccc(S(=O)(=O)Nc2ccc(O)c(Sc3nc4ccccc4s3)c2)cc1
Cc1ccc(C(=O)Nc2nnc(SCc3cc(=O)c4c(C)ccc(C)c4[nH]3)s2)cc1
O=C(C1COc2ccccc2O1)N(Cc1cccnc1)c1nc2c(F)cc(F)cc2s1 (configuration not stated)
COCCNc1cc(N2CCN(C3CCCCC3)CC2)c2noc3c2c1C(=O)c1ccccc1-3
Cc1cc(C)cc(OCC(=O)Nc2ccc(-c3nc4ncccc4o3)cc2C)c1
COc1cccc(C(=O)N2CCC(N3CCN(Cc4ccc(F)cc4)C(=O)C3=O)CC2)c1
COc1ccc(NC(=O)CSc2nnc(-c3nnn(-c4ccc(F)cc4)c3C)o2)cc1
O=C(CC1N=C2c3ccccc3N=C(SCc3cccc(Cl)c3)N2C1=O)NC1CCCCC1 (configuration not stated)
Cc1ccc(OCC(=O)Nc2cccc(C(=O)OCc3cc(=O)n4cc(C)sc4n3)c2)cc1
Cn1c(=NC(=O)c2ccc(F)cc2)sc2cc(Br)ccc21
